pIC50: −log10 of the molar value.
Experiments:
SRC = SRC (Homo sapiens (Human), UniProt P12931); test: SelectScreen Kinase Profiling Services commercial assay (ThermoFisher), SRC; assay type: biochemical
YES1 = YES1 (Homo sapiens (Human), UniProt P07947); test: SelectScreen Kinase Profiling Services commercial assay (ThermoFisher), YES1; assay type: biochemical
p-SRC^Y416 = test: Signaling analysis under washout conditions (pSRC Y416 Western blot); settings: H1975 cells, 1 μM for 2 h, drug washout, lysed 0 h, 2 h and 4 h post-washout

UniProt P12931, sequence (P12931 whole entry): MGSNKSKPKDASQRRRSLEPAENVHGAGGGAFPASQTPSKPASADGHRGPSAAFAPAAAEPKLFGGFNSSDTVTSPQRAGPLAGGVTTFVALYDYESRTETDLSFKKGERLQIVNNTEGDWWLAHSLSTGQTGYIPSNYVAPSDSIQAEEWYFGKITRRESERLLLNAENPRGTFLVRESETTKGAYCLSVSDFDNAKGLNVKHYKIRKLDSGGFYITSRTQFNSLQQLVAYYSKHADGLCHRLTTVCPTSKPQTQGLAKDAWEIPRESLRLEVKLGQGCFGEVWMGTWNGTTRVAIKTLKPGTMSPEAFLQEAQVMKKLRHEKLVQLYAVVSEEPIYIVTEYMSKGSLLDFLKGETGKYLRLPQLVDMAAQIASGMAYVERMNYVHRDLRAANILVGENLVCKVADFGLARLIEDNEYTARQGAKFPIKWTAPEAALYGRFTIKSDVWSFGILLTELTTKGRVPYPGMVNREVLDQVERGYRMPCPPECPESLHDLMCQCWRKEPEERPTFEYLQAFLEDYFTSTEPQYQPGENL
UniProt P07947, sequence (P07947 whole entry): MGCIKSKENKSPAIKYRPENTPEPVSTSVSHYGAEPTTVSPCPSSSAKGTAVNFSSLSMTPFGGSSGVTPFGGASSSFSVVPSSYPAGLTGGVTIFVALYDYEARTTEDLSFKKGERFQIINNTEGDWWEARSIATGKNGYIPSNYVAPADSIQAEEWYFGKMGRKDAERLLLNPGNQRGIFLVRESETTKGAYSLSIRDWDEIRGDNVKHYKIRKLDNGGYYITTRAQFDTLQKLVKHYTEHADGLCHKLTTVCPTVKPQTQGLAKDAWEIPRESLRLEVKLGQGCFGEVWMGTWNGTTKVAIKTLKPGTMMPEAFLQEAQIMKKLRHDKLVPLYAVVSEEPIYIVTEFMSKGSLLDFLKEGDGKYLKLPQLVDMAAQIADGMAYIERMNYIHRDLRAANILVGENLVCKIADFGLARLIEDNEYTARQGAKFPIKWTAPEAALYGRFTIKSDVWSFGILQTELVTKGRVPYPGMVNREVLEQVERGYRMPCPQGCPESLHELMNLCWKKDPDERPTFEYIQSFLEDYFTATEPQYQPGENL

Structure (SMILES) | pIC50 (SRC) | pIC50 (YES1) | inhibition of p-SRC^Y416 signaling post-washout (p-SRC^Y416)
C=CC(=O)Nc1cccc(F)c1Nc1nc(Nc2ccc(N3CCN(C)CC3)cc2)ncc1Cl [Compound 38, N-{2-[(5-chloro-2-{[4-(4-methylpiperazin-1-yl)phenyl]amino}pyrimidin-4-yl)amino]-3-fluorophenyl}prop-2-enamide] | 8.00 to 9.00 | 8.00 to 9.00 | –
C=CC(=O)Nc1c(C)cccc1Nc1nc(Nc2ccc(N3CCN(C)CC3)cc2)ncc1Cl [Compound 34, N-{2-[(5-chloro-2-{[4-(4-methylpiperazin-1-yl)phenyl]amino}pyrimidin-4-yl)amino]-6-methylphenyl}prop-2-enamide] | 8.00 to 9.00 | 8.00 to 9.00 | –
C=CC(=O)Nc1ccccc1Nc1nc(Nc2ccc(N3CCN(C)CC3)cc2)ncc1C(=O)Nc1c(Cl)cccc1Cl [Compound 27, N-(2,6-dichlorophenyl)-2-{[4-(4-methylpiperazin-1-yl)phenyl]amino}-4-{[2-(prop-2-enamido)phenyl]amino}pyrimidine-5-carboxamide] | 8.00 to 9.00 | > 9.00 | –
C=CC(=O)Nc1cc(C)ccc1Nc1nc(Nc2ccc(N3CCN(C)CC3)cc2)ncc1Cl [Compound 33, N-{2-[(5-chloro-2-{[4-(4-methylpiperazin-1-yl)phenyl]amino}pyrimidin-4-yl)amino]-5-methylphenyl}prop-2-enamide] | 8.00 to 9.00 | 8.00 to 9.00 | –
C=CC(=O)Nc1ccccc1Nc1nc(Nc2ccc(N3CCN(C)CC3)cc2)ncc1-c1ccc(C(C)=O)cc1 [Compound 8, N-(2-((5-(4-acetylphenyl)-2-((4-(4-methylpiperazin-1-yl)phenyl)amino)pyrimidin-4-yl)amino)phenyl)acrylamide] | 8.00 to 9.00 | 8.00 to 9.00 | –
C=CC(=O)Nc1ccc(F)cc1Nc1nc(Nc2ccc(N3CCN(C)CC3)cc2)ncc1C(=O)Nc1c(C)cccc1Cl [Compound 41, N-(2-chloro-6-methylphenyl)-4-{[5-fluoro-2-(prop-2-enamido)phenyl]amino}-2-{[4-(4-methylpiperazin-1-yl)phenyl]amino}pyrimidine-5-carboxamide] | 8.00 to 9.00 | > 9.00 | –
C=CC(=O)Nc1ccccc1Nc1nc(Nc2ccc(N3CCN(C)CC3)cc2)ncc1Br [Compound 3, N-{2-[(5-bromo-2-{[4-(4-methylpiperazin-1-yl)phenyl]amino}pyrimidin-4-yl)amino]phenyl}prop-2-enamide] | 8.00 to 9.00 | 8.00 to 9.00 | –
C=CC(=O)Nc1ccc(C(C)C)cc1Nc1nc(Nc2ccc(N3CCN(C)CC3)cc2)ncc1C(=O)Nc1c(C)cccc1Cl [Compound 37, N-(2-chloro-6-methylphenyl)-2-{[4-(4-methylpiperazin-1-yl)phenyl]amino}-4-{[2-(prop-2-enamido)-5-(propan-2-yl)phenyl]amino}pyrimidine-5-carboxamide] | 6.00 to 7.00 | 8.00 to 9.00 | –
C=CC(=O)Nc1ccccc1Nc1nc(Nc2ccc(N3CCN(C)CC3)cc2)ncc1C(=O)Nc1ccc(Oc2ccccc2)cc1 [Compound 20, 4-((2-acrylamidophenyl)amino)-2-((4-(4-methylpiperazin-1-yl)phenyl)amino)-N-(4-phenoxyphenyl)pyrimidine-5-carboxamide] | 5.00 to 6.00 | 5.00 to 6.00 | –
C=CC(=O)Nc1ccccc1Nc1nc(Nc2ccc(N3CCN(C)CC3)cc2)ncc1C(=O)Nc1c(C)cccc1Cl [Compound 18, 4-((2-acrylamidophenyl)amino)-N-(2-chloro-6-methylphenyl)-2-((4-(4-methylpiperazin-1-yl)phenyl)amino)pyrimidine-5-carboxamide] | – | – | potent and sustained inhibition
C=CC(=O)Nc1ccccc1Nc1nc(Nc2ccc(N3CCN(C)CC3)cc2)ncc1C1CC1 [Compound 1, N-{2-[(5-cyclopropyl-2-{[4-(4-methylpiperazin-1-yl)phenyl]amino}pyrimidin-4-yl)amino]phenyl}prop-2-enamide] | 8.00 to 9.00 | 8.00 to 9.00 | –
C=CC(=O)Nc1ccccc1Nc1nc(Nc2ccc(N3CCN(C)CC3)cc2)ncc1I [Compound 5, N-{2-[(5-iodo-2-{[4-(4-methylpiperazin-1-yl)phenyl]amino}pyrimidin-4-yl)amino]phenyl}prop-2-enamide] | 8.00 to 9.00 | 8.00 to 9.00 | –
C=CC(=O)Nc1cccc(C)c1Nc1nc(Nc2ccc(N3CCN(C)CC3)cc2)ncc1C(=O)Nc1c(C)cccc1Cl [Compound 36, N-(2-chloro-6-methylphenyl)-4-{[2-methyl-6-(prop-2-enamido)phenyl]amino}-2-{[4-(4-methylpiperazin-1-yl)phenyl]amino}pyrimidine-5-carboxamide] | 6.00 to 7.00 | 8.00 to 9.00 | –
C=CC(=O)Nc1ccccc1Nc1nc(Nc2ccc(N3CCN(C)CC3)cc2)nc2ccoc12 [Compound 12, N-{2-[(2-{[4-(4-methylpiperazin-1-yl)phenyl]amino}furo[3,2-d]pyrimidin-4-yl)amino]phenyl}prop-2-enamide] | 7.00 to 8.00 | 8.00 to 9.00 | –
C=CC(=O)Nc1ccccc1Nc1nc(Nc2ccc(N3CCN(C)CC3)cc2)ncc1-c1ccc(Oc2ccccc2)cc1 [Compound 7, N-(2-((2-((4-(4-methylpiperazin-1-yl)phenyl)amino)-5-(4-phenoxyphenyl)pyrimidin-4-yl)amino)phenyl)acrylamide] | 8.00 to 9.00 | 8.00 to 9.00 | –
C=CC(=O)Nc1ccccc1Nc1nc(Nc2ccc(N3CCN(C)CC3)cc2)ncc1-c1ccoc1 [Compound 10, N-(2-((5-(furan-3-yl)-2-((4-(4-methylpiperazin-1-yl)phenyl)amino)pyrimidin-4-yl)amino)phenyl)acrylamide] | 8.00 to 9.00 | > 9.00 | –
C=CC(=O)Nc1ccccc1Nc1nc(Nc2ccc(N3CCN(C)CC3)cc2)ncc1OCc1ccc(Oc2ccccc2)cc1 [Compound 16, N-(2-((2-((4-(4-methylpiperazin-1-yl)phenyl)amino)-5-((4-phenoxybenzyl)oxy)pyrimidin-4-yl)amino)phenyl)acrylamide] | 8.00 to 9.00 | 8.00 to 9.00 | –

— patent publication US12365664B2, “Small molecule inhibitors of SRC tyrosine kinase” (Dana-Farber Cancer Institute, Inc., priority 2019, dated 2025)
